From PubChem BioAssay AID488969 (Vanderbilt High Throughput Screening Facility, 2010)
In all, about 110,000 compounds were measured (“z-score”: median about -0.1, highest 2% from about 2 on). This is one part of the list.

biological target: Metabotropic glutamate receptor 8 (Rattus norvegicus) (UniProt P70579); test: mGluR8 Gi/Go-coupled signaling modulation – cell-based, rat, thallium flux, HTS, primary screen (AID 488969); settings: HEK293 rat mGluR8, GIRK (G protein-gated inwardly rectifying potassium channel) thallium flux, FluoZin2; at 10 µM; stronger effect = higher value; submaximal glutamate (EC20) added with thallium
UniProt P70579, sequence (P70579 whole entry, looked up): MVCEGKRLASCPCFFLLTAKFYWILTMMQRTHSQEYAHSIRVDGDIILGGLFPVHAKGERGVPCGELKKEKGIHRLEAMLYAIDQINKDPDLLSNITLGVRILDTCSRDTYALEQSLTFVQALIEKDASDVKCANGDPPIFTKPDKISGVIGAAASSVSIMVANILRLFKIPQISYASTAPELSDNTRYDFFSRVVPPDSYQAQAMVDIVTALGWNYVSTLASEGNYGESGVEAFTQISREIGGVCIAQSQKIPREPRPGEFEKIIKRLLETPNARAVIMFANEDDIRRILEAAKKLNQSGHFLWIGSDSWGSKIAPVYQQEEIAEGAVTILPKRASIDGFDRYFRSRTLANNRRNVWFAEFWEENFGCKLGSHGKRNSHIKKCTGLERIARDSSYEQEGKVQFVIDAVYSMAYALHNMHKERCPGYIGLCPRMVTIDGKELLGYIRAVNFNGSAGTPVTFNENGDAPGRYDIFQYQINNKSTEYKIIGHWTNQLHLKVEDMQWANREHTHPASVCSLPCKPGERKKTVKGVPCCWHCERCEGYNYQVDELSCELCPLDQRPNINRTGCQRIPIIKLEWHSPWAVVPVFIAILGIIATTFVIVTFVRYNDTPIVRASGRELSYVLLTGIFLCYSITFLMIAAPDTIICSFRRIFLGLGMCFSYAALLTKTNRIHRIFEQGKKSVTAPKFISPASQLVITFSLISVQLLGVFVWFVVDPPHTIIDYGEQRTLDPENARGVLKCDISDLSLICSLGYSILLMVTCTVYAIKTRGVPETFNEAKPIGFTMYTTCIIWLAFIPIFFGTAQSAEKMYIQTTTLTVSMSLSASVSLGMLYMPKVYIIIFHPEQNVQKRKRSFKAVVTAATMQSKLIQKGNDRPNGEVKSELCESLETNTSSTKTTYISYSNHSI

Row | Structure (SMILES) | z-score
1 | Cc1coc(C)c1C(=O)CC1(O)C(=O)N(Cc2ccccc2)c2ccccc21 (centres undefined) | -0.0594
2 | N#CCCN1CCN(Cn2c3ccccc3c3ccccc32)CC1 | 0.677
3 | Cc1ccc2[nH]c(=O)c(CN(CCO)C(=O)N(C)C)cc2c1 | -0.0536
4 | CN1CCN(C(=O)/C(=C\c2cccs2)NC(=O)c2cccs2)CC1 | -0.694
5 | CCOC(=O)c1c(N)sc2c1CCC1C(=O)N(C3CCCCC3)C(=O)C21 (centres undefined) | 0.138
6 | CCOC(=O)c1ccc(NC(=S)N2CCC(O)CC2)cc1 | 0.0438
7 | CCCCC1(C)OC(=O)C(=Cc2ccc(N(C)C)cc2)C(=O)O1 (centres undefined) | -0.437
8 | COc1ccc(/C=C/C(=O)NC(=S)Nc2ccc(C(=O)O)cc2)cc1 | -0.426
9 | Cc1ccccc1N1C(=O)c2ccccc2C1Nc1cccnc1 (centres undefined) | -0.57
10 | Cc1ccccc1NC(=O)Nc1ccccc1C(=O)NCc1ccccc1 | -0.117
11 | COc1ccc(S(=O)(=O)N2CCC(C(=O)NCCC3=CCCCC3)CC2)cc1OC | 0.903
12 | O=C(Cc1ccccc1)NC(=S)Nc1cc(C(F)(F)F)ccc1Cl | 0.00533
13 | COc1ccc(S(=O)(=O)CCC(=O)NCCc2ccc(Cl)cc2)cc1 | -0.0642
14 | Cc1cc(C(=O)N2CCN(C/C=C/c3ccccc3)CC2)cs1 | 0.0804
15 | CCC(C)N1C(=O)c2ccccc2C1C(=O)NC1CCCCCC1 (centres undefined) | -0.0901
16 | CCC(c1c(C)[nH]oc1=O)c1c(C)[nH]oc1=O | 0.119
17 | CNc1ccccc1C(C)(C)c1cc(-c2cc(C)cc(C)c2)no1 | -0.131
18 | COc1ccccc1-n1c(SCC(=O)Nc2cccc3ccccc23)nc(O)cc1=O | 0.314
19 | Cc1cc(C)nc(SCC(=O)Nc2ccc(N3CCOCC3)cc2)n1 | -0.197
20 | O=C(CCCn1cnc([N+](=O)[O-])n1)Nc1ccc(Cl)cc1Cl | -0.0117
21 | Cc1cccc(NC(=S)N(CCc2nc3cc(C)c(C)cc3[nH]2)Cc2cccnc2)c1 | 0.689
22 | S=c1[nH]nc(COc2ccccc2)n1C1CCCCC1 | 1.08
23 | Cn1c(=O)oc2cc(S(=O)(=O)N3CCCC(C(=O)NC4CCCc5ccccc54)C3)ccc21 (centres undefined) | -0.0663
24 | Cc1nc(-c2ccccc2)nc2[nH]c(-c3ccccc3)cc(=O)c12 | 0.0625
25 | O=c1cc(CN2CCN(c3ccc(F)cc3)CC2)nc2sccn12 | 0.775
26 | COC(=O)c1sc2nc3c(cc2c1N)COC(C)(C)C3 | -0.0485
27 | O=C1C2N=NN(CC(=O)N3N=C(c4cccc5ccccc45)CC3c3ccccc3)C2C(=O)N1c1ccccc1 (centres undefined) | -0.148

Row | Structure (SMILES) | z-score
28 | COc1ccc(NC(=O)c2ccc(C)cc2Cl)c([N+](=O)[O-])c1 | -0.0358
29 | COc1c(Cl)cc(C(=O)Nc2ccc(Cl)cn2)cc1Cl | -0.67
30 | C/C(=N\OC(=O)c1ccc(F)cc1)c1sc(-c2ccccc2)nc1C | 1.29
31 | COc1ccc(CNc2nc(SCc3cc(=O)n4cc(Cl)ccc4n3)nc3ccccc23)cc1 | -0.702
32 | CCc1nc(NCCC(C)C)c(C#N)c2c1CCCC2 | -1.37
33 | CCC(=O)N1CCc2cc(S(=O)(=O)CCC(=O)Nc3c(C)n(C)n(-c4ccccc4)c3=O)ccc21 | 0.5
34 | CCn1c(SCC(=O)N=Nc2c(O)[nH]c3ccccc23)nnc1-c1ccc(C(C)(C)C)cc1 | 0.73
35 | COc1ccc(-c2nc(CS(=O)CC(=O)NCc3ccccn3)c(C)o2)cc1 (centres undefined) | 0.0296
36 | Cc1ccc(-c2nn[nH]n2)cc1 | -0.0765
37 | O=C(CSc1nnc(-c2ccccc2)n1-c1ccccc1)NCc1ccco1 | -0.351
38 | CC1(C)Cc2cccc(OCC(=O)N3CCN(c4ccccc4)CC3)c2O1 | 0.0091
39 | CCCC(=O)Nc1nc(C)c(-c2csc(Nc3ccccc3OC)n2)s1 | -0.246
40 | Cc1ccccc1-c1nc2cc(N)ccc2o1 | -0.102
41 | Clc1ccc2nc(N3CCCCC3)sc2c1 | -0.243
42 | Cc1ccc(C(=O)NC(NCC2CCCO2)C(Cl)(Cl)Cl)cc1 (centres undefined) | 0.317
43 | O=C(COc1ccc([N+](=O)[O-])cc1)Nc1ccc(C(=O)NCc2cccnc2)cc1 | -0.146
44 | CCN(CC)S(=O)(=O)c1ccc(C(=O)NNc2nc(-c3ccccc3)c3cc(Br)ccc3n2)cc1 | -0.309
45 | CC(=O)n1nc(-c2ccc(Cl)cc2)nc1NCc1ccco1 | 0.572
46 | O=C(COc1ccc2c(c1)OCO2)NC12CC3CC(CC(C3)C1)C2 | -0.55
47 | Cc1ccc(NC(=O)Cc2ccc(F)cc2)cc1 | 0.722
48 | CC1CCc2c(sc3ncnc(NCCCOC(C)C)c23)C1 (centres undefined) | -0.603
49 | Cc1cc(C(=O)NCc2cccs2)c(C)o1 | -0.172
50 | CC(=O)OC1C(OC(C)=O)N(C(C)=O)C(=O)N1C(C)=O (centres undefined) | 0.00671
51 | OCCN1CCN(CCOc2cccc(Cl)c2)CC1 | 0.398
52 | CCOc1ccc(Cn2c(SCCCCC#N)nc3c2c(=O)n(C)c(=O)n3C)cc1OCC | -0.246
53 | N#C/C(=C\c1ccc(-c2ccc(Br)cc2)o1)C(=O)NCCc1c[nH]c2ccccc12 | 0.016
54 | Cc1c(Cl)cnc(NC(=O)COC(=O)c2ccc([N+](=O)[O-])s2)c1Cl | 0.683
